From ChEMBL document CHEMBL4888484, “Replenishing the malaria drug discovery pipeline: Screening and hit evaluation of the MMV Hit Generation Library 1 (HGL1) against asexual blood stage Plasmodium falciparum ,using a nano luciferase reporter read-out” (2022) come the findings set out here.

Structures are written as SMILES. Among all 150,000 compounds or so, about 540 (0.36%) showed an effect of 50% or more. This is one part of the list.

The subject of the assay is Plasmodium falciparum. In words: Primary screen in NF54 nanoGlo assay, in single point, at 2uM, 72h; a lower Z score goes with more inhibition. The settings on record: timepoint 72 hour. It counts as functional, Erythrocyte.
As for `COc1ccc(CC(=O)N2CCC(OC)(c3nccn3C)CC2)cc1`, the “% Inhibition” value was -1% and the Z score amounted to 0.14.

As to `COc1cccc(CNCCCn2ccnc2)c1OCc1ccc(F)cc1`, the “% Inhibition” value was 36% and the Z score is -5.22.

As to `COc1ccc(S(=O)(=O)NC2CCN(C)CC2)cc1C(=O)N1CCCCC1`, the “% Inhibition” value is -11% and the Z score is given as 1.84.

Take `Cn1cc(Cl)c([C@@H]2CCCCCN2C(=O)c2ccccc2F)n1`: the “% Inhibition” value is recorded as 4% and the Z score is reported as -0.36.

As for `Cc1nc2ccccc2c(N2CCC(n3cncn3)CC2)c1C`, the “% Inhibition” value is -21% and the Z score was 3.93.

On to `COc1ccc(-n2nc3nc(NCCN4CCCCC4)nc(-c4cccc(Cl)c4)c3c2N)cc1`, for which the “% Inhibition” value is reported as -10% and the Z score was found to be 1.41.

Regarding `Cc1oc2ncn(C)c(=O)c2c1C(=O)N1CCC(Cc2ccccc2)CC1`, the “% Inhibition” value is listed as 1% and the Z score is recorded as -0.14.

Turning to `CCNC(=O)c1ccc(N2CCN(c3ccc(OC)cn3)CC2)nn1`, the “% Inhibition” value was 9% and the Z score was -1.05.

In the case of `CCCc1cc(C(=O)Nc2c(C)n(C)n(-c3ccccc3)c2=O)no1`, the “% Inhibition” value is 5% and the Z score was -0.77.

As to `Cc1cc2c(c(-c3ccc(-c4ccon4)s3)c1)O[C@@H](CN)C2`, the “% Inhibition” value was -25% and the Z score amounted to 2.69.

For the molecule `O=S1(=O)CCN(CCc2c(F)ccc(F)c2F)CC1`, the “% Inhibition” value is listed as -1% and the Z score was found to be 0.12.

Consider `COc1ccc(C(=O)NCCc2nc3ccccc3c(=O)[nH]2)cc1OC`, for which the “% Inhibition” value is 1% and the Z score is on record as -0.11.

On to `CC(C)=CCN(CCC#N)Cc1ccccn1`, for which the “% Inhibition” value stood at 0% and the Z score was found to be 0.06.

With `Cc1cnn(CCNC(=O)Cc2csc(-c3ncccn3)n2)c1`, the “% Inhibition” value is given as 1% and the Z score was -0.21.

For `Fc1ccc(CN2CC[C@H](n3cc(COCc4ccccc4)nn3)C2)c(F)c1`, the “% Inhibition” value is recorded as -6% and the Z score came to 0.87.

`CCCO/C(=N/C(=O)c1ccc2c(c1)OCO2)NCC(C)C`: the “% Inhibition” value was 3% and the Z score is on record as -0.44.

As for `CCN=C(NCCc1cnn(C)c1C)NCc1cccnc1N(C)C`, the “% Inhibition” value is recorded as -6% and the Z score is listed as 0.83.

Take `Cn1nccc1-c1cc(F)cc2cccnc12`: the “% Inhibition” value is -1% and the Z score is 0.21.

Turning to `C[C@@H](c1ccccn1)N(C)S(=O)(=O)c1cccc2nsnc12`, the “% Inhibition” value is given as -14% and the Z score came out at 1.91.

`CC(=O)N(Cc1ccc(F)cc1)C(C)(C)C`: the “% Inhibition” value is reported as -6% and the Z score is on record as 0.8.

For `O=C1NCCc2ccc(cc2)OCCCn2cc(nn2)CC12CCN(Cc1cnc(N3CCCC3)s1)CC2`, the “% Inhibition” value is -7% and the Z score was 0.95.

As to `Cc1cc(F)ccc1[C@H]1C(=O)NCCN1Cc1csc(C(C)(C)C)n1`, the “% Inhibition” value is on record as -8% and the Z score is reported as 1.3.

For `CC(C)(C)OC(=O)N1CCC12CCN(C(=O)c1cccnc1)CC2`, the “% Inhibition” value is -13% and the Z score was found to be 1.58.

As for `CN(CC1CCCCC1)C(=O)[C@@H]1CCCO1`, the “% Inhibition” value is -6% and the Z score was 0.76.

On to `CCCCS(=O)(=O)NCCc1ccc(C(=O)O)cc1`, for which the “% Inhibition” value is -6% and the Z score was 0.85.

Regarding `Nc1c(F)cc(Cl)cc1C(=O)N1CCC(OC2CCCCC2)CC1`, the “% Inhibition” value was 0% and the Z score stood at 0.05.

Take `Cc1ccsc1CN1CCn2c(nnc2[C@@H]2C[C@H](O)CN2C(C)C)C1`: the “% Inhibition” value was -2% and the Z score was 0.39.

In the case of `Cn1nccc1C1CC(NS(=O)(=O)CC2CCCC2)CCO1` (centres undefined), the “% Inhibition” value is recorded as -9% and the Z score is reported as 1.64.

Regarding `Cc1cccc(C(=O)NCC[C@H]2CCCNC2)c1F`, the “% Inhibition” value was -3% and the Z score is 0.49.

As for `O=C(NC1CCC(CC2CCC(NC(=O)c3sc4cc(F)ccc4c3Cl)CC2)CC1)c1sc2cc(F)ccc2c1Cl` (centres undefined), the “% Inhibition” value is listed as -2% and the Z score is on record as 0.3.

Turning to `COc1cccc2c(C)cc(=O)n(CC(=O)N3CCc4ccccc4C3)c12`, the “% Inhibition” value is -5% and the Z score turned out to be 0.59.

In the case of `O=C(CCc1cn[nH]c1)N1CCC(c2cscn2)CC1`, the “% Inhibition” value is on record as -4% and the Z score is 0.83.

On to `Cc1cc([C@H](C)NCc2ccc3c(n2)CCCC3)c(C)o1`, for which the “% Inhibition” value came to 2% and the Z score is -0.31.

For the molecule `O=C(NCc1c(F)c(F)cc(F)c1F)NC1CC=CC1`, the “% Inhibition” value is recorded as -8% and the Z score amounted to 0.94.

Regarding `Cc1cccc(Cn2ncc(C)c2NC(=O)[C@@H]2CCCCCN2C)c1`, the “% Inhibition” value is -13% and the Z score came to 1.37.

For `C[C@H]1CCCCN1C(=O)CCn1ccccc1=O`, the “% Inhibition” value is given as 13% and the Z score is recorded as -1.32.

For `Cn1cccc1C(=O)N1CC[C@H](c2nc(-c3ccccc3)no2)C1`, the “% Inhibition” value is on record as -6% and the Z score is listed as 0.92.

Take `Cc1nc(-c2ccc3[nH]c(=O)[nH]c3c2)cs1`: the “% Inhibition” value is listed as 32% and the Z score is on record as -1.01.

As to `COC(=O)c1nc2nc(C)cc(C)n2c1F`, the “% Inhibition” value is given as -1% and the Z score was 0.15.

Turning to `CNC(=O)c1cccc(C(=O)Nc2ccc(F)cc2NC2CC2)c1`, the “% Inhibition” value is recorded as -5% and the Z score was determined as 0.79.

With `CC(C)C[C@@H](CO)NC(=O)NC1CCC(F)(F)CC1`, the “% Inhibition” value is listed as -14% and the Z score was determined as 2.57.

For the molecule `NC(=O)N1CCC[C@H]1C(=O)N1CCc2ccccc2C1`, the “% Inhibition” value is recorded as -4% and the Z score is 0.81.
